Laboratory results as given in publication PMC7817025.
These are yes or no findings as the source states them, for the method shown. In cells and extracts the contact can be indirect. Some results given as binding are weak or reduced against the parent protein; the word gives no strength.

By UniProt entry, the sequences of proteins in these tests, tags left out.
UniProt Q15910: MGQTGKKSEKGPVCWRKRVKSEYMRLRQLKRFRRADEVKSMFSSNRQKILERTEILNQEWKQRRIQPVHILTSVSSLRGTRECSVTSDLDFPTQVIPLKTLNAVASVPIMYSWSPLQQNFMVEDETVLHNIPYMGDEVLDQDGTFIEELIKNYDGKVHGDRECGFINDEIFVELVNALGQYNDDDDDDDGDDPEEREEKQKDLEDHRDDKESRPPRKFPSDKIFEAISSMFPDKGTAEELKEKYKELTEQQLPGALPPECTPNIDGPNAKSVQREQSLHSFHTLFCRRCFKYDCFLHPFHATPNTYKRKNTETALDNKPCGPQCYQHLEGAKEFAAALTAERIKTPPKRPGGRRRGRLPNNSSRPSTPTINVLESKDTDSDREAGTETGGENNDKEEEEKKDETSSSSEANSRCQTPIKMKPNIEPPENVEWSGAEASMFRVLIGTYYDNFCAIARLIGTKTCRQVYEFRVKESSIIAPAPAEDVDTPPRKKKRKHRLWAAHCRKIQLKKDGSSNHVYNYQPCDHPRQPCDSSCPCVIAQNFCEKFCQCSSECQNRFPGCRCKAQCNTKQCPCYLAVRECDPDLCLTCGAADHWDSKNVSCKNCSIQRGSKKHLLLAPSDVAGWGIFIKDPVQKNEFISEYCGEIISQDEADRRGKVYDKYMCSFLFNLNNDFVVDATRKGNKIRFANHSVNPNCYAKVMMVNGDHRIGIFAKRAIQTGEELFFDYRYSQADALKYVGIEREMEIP
UniProt P0C746: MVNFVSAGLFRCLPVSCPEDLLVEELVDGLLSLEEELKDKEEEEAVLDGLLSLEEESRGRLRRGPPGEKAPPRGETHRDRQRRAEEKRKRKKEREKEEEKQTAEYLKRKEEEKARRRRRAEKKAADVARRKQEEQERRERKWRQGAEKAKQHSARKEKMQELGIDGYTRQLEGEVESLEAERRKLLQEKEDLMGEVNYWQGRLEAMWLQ
UniProt Q15022: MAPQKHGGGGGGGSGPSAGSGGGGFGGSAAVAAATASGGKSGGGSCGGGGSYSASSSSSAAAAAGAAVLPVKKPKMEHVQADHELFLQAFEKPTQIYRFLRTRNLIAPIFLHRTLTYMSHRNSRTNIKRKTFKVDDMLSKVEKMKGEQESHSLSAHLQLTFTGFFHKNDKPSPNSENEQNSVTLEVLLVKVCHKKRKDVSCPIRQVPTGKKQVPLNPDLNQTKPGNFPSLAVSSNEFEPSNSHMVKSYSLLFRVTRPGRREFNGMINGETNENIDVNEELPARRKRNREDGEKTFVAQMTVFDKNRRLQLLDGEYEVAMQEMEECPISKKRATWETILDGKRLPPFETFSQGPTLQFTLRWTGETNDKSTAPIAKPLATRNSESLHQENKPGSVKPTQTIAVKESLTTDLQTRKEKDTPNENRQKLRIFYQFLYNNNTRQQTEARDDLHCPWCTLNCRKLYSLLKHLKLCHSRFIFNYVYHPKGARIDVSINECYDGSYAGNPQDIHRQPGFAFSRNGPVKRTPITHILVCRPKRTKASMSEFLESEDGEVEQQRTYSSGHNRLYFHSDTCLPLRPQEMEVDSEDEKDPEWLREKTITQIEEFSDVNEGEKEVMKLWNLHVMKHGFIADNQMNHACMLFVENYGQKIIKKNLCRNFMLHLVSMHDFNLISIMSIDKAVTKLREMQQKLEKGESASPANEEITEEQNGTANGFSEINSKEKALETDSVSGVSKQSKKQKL

Assays:
[1] = target: enhancer of zeste homolog 2 (EZH2), endogenous in HEK293T (human (endogenous in HEK293T)) (UniProt Q15910); experiment: co-IP; as a1 but HEK293T co-transfected with Tax and HBZ expression plasmids; IP with anti-EZH2, blotted against EZH2 and Tax
[2] = target: enhancer of zeste homolog 2 (EZH2), endogenous in HEK293T (human (endogenous in HEK293T)) (UniProt Q15910); experiment: co-IP; HEK293T transfected with Tax, harvested 48 h post-transfection; nuclear extracts (10 mM Hepes pH 7.9, 150 mM NaCl, 5 mM MgCl2, 0.1% NP40), DNase I and RNase A treated; IP with rabbit anti-EZH2 overnight at 4°C, Dynabeads/Protein G; blotted against EZH2 and Tax
[3] = target: HTLV-1 HBZ, Myc-His-tagged (pcDNA3.1-hbz-Myc-His), in HEK293T (Human T-cell leukemia virus type 1) (UniProt P0C746); experiment: co-IP; HEK293T transfected with Myc-HBZ, harvested 48 h post-transfection; nuclear extracts (10 mM Hepes pH 7.9, 150 mM NaCl, 5 mM MgCl2, 0.1% NP40), DNase I and RNase A treated; IP with mouse anti-c-myc-tag (9E10) overnight at 4°C, Dynabeads/Protein G; blotted against EZH2 and SUZ12
[4] = target: HTLV-1 HBZ, Myc-His-tagged (pcDNA3.1-hbz-Myc-His), in HeLa (Human T-cell leukemia virus type 1) (UniProt P0C746); experiment: proximity ligation; Duolink in situ proximity ligation assay in HeLa cells transfected with HBZ; signal in the nucleus; confocal microscopy
[5] = target: endogenous HBZ of MT-1 cells (Human T-cell leukemia virus type 1 (endogenous in MT-1)) (UniProt P0C746); experiment: proximity ligation; Duolink in situ proximity ligation assay in MT-1 cells expressing endogenous HBZ; confocal microscopy

HTLV-1 Tax, His-tagged (pcDNA3.1-Tax-His) (from UniProt P03409 1-353)
binding [1]: no binding (condition: with co-transfected HBZ)
binding [2]: binds

suppressor of zeste 12 homolog (SUZ12), endogenous in HEK293T (from UniProt Q15022 1-739)
binding [3]: binds

suppressor of zeste 12 homolog (SUZ12), endogenous in HeLa (from UniProt Q15022 1-739)
binding [4]: binds

suppressor of zeste 12 homolog (SUZ12), endogenous in MT-1 (from UniProt Q15022 1-739)
binding [5]: binds
